# Results published in the supplement of paper PMC11417369.
# The other results are listed elsewhere or left out.
# Test system: PfHDP1 homeodomain (GST-tagged)
# Test: gcPBM binding intensity (ln(normalized median fluorescence intensity)); higher = stronger DNA binding
# In short: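 In this array assay, P. falciparum DNA-binding domains with a GST tag, expressed in E. coli, were applied for 1 h to primer-extended double-stranded 36-bp intergenic genomic probes and negative controls on an Agilent 4 × 180k array. Bound protein was visualised with Alexa488 anti-GST antibody at 488 nm. Binding intensity is the highest Masliner-normalised natural-log median intensity across replicate spots of either probe orientation.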
row,Sequence,gcPBM binding intensity (ln)
1,TATATATATATATTGACACACATGTATTTCAATATT [CACACA_site2832],9.01
2,AGAATGGATTAGCTAGCACACACAAAAAAAAAAAAA [CACACA_site8995],6.26
3,ACTAATATTTTATAAAGTACAAATTAATAAAATTCA [XGTACX_site5817],5.94
4,TACAAAAAGAATGAAAAATATATAATAAAAATAAAA [XGTACX_negctrl_site159],6.51
5,AAGACAACATAAATATGTACATATATTTATTATTTT [XGTACX_site1792],6.4
6,TACCATGTTCAAATTACACACATATAATCTAATATA [CACACA_site2008],6.65
7,ATTTTTTTTAATTTGTACAAATTTTGTTCACAATTT [CACACA_negctrl_site1301],7.06
8,CATTTCATTTCTTAATGTACTTTATTCCACCACATA [XGTACX_site5943],6.42
9,TTTATTATTATATTATTTTAATTTTTCTTTAGTACA [GTGCAC_negctrl_site392],6.1
10,AAATTAAATAAATTTACACACTAAAAATTACATATA [CACACA_site1054],6.02
11,ATAAATATATGAAGTTGTACAAATAATTAACATTAT [XGTACX_site5740],6.69
12,ATGTGTGTATACATCAATTATATATATATTATGTAT [GTGCAC_negctrl_site720],6.93
13,AAAATAAAAATAACAACACACATATACTATAATATT [CACACA_site2769],6.66
14,TATGTTAAAAAAAAATGTACATATGTTTTTGTTAAA [XGTACX_site4754],6.43
15,ATACATTCAAAATATACACACATATATATATAATAT [CACACA_site950],6.61
16,TTTCCCCCATATAATGAACACACACCCTCCTCATAA [CACACA_site8110],7.22
17,GACCCATTATTTTATTGTACTTTTATTATAACGTGA [XGTACX_site156],6.88
18,AAATGAATAATGATATACAAACAAATCATGTGTTAA [XGTACX_negctrl_site150],6.22
19,ATAATATAGAACAATACATGCAAATGGCTTAAATTT [TGCATGCA_site521],6.34
20,GGAAGCTAATTACACACATGCATATTTTTTTTTCAA [TGCATGCA_site548],7.25
21,ATGGGACAGATATATACACACATATAAATATAAATA [CACACA_site6684],6.53
22,TTATATATGTATTAATGTACATAGTTGAGAAAGGTA [XGTACX_site1511],6.85

row,Sequence,gcPBM binding intensity (ln)
1,AAAGGGACATATATATCACACACAAAAATTAGTCCC [CACACA_site8897],6.82
2,TAATATCTACATATATGTACATATATATATATATAT [XGTACX_site7979],9.16
3,AATAAATAAAAAATTACACACATATTTATAAATATA [CACACA_site7584],6.4
4,AAGATAAACTTTTTTAATTAATTTAATTTTTTTTTT [GTGCAC_negctrl_site386],6.08
5,CCCCCCCACGAACACACACACATACATACCACATAT [CACACA_site7149],8.07
6,TTATAATAGTTAATATGTACATATTTAATAAATAAT [XGTACX_site3183],6.23
7,ATATATATATATATTCCACACACACCCAAAAAAAAA [CACACA_site9215],8.97
8,CACAAAAATAAATATAAACACACAATAAATAAATAA [CACACA_site8197],6.58
9,TAAAATAAGTTAAAAAGTACATAATTATAATAAATA [XGTACX_site8108],6.28
10,TTTGTTTTTATTTACACATGCAAAAAAAAAAAAAAA [TGCATGCA_site655],6.49
11,TACAAAATACAAAAATGTACATAAAAATTTATAAAA [XGTACX_site6861],6.77
12,TACAGATACGGACACACACACACACCCAGACAAAAA [CACACA_site4432],6.81
13,ATATTAAAATATAATCGTACAATTAAATTTTTTTTT [XGTACX_site2739],6.19
14,TTTTTTTTAAATTGTGGTACACAAATTCATATATAT [XGTACX_site8944],6.55
15,TAAATATAATAAGAACAAACAAAATAGTACAATATA [TGCATGCA_negctrl_site364],6.84
16,GTCATATTATTATTACGTACTTAAATATATAATATA [XGTACX_site3405],6.71
17,AAAAGAAAAAAAAGTACACACATGTATATTAATCGT [CACACA_site2528],6.7
18,TGTTAACTTAAAAAAATACCTACGGAAAAATCACAA [TGCATGCA_negctrl_site433],6.28
19,TATGTGTATAATAAAAGTACATATATTATTATATAA [XGTACX_site8556],6.35
20,TATTTCGTAATTTAATAATATACAAGAAATATATAT [XGTACX_negctrl_site143],6.11
21,CATATAATAAAAAATGTACACACATAAGAAAATTTA [CACACA_site8943],6.51
22,ATTGACGTCATATAAACATGCACATTTTGGATGTTT [TGCATGCA_site985],7.27
